{"source": "PubChem BioAssay AID1345083", "about": "(National Center for Advancing Translational Sciences (NCATS), 2018)", "note": "Hit rate of the full screen: of about 94,000 compounds, about 6,200 (6.6%) were called active. Inconclusive results, whose numbers are uncertain, are shown with a selection of clear calls. Calls follow the shape of the dose curve; as a rule, active = well fitted inhibition curve with a large enough effect; inconclusive = small, poorly fitted or top-dose-only effect; inactive = flat fitted curve, though single readings scatter. Potencies of inconclusive entries are doubtful fits and often do not repeat. Potency is read from the fitted curve at half-maximal effect; tags tell the direction and shape of the fitted curve.", "data": [{"experiment": "Cytotoxic Profiling in HEK 293 Cell Line of Diverse Libraries Using Quantitative High-Throughput Screening; also: nearly all actives have a fitted effect of over 60% in size", "details": "HEK 293 viability, ATP luminescence (CellTiter-Glo), 48-72 h; series mostly up to 115 µM", "summary_of_the_method": "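Pintool-delivered compounds were incubated with HEK 293 cells (250 cells/well) at 37 degree Celsius for 48 or 72 hr. ATP-dependent luminescence (CellTiter-Glo) then reported remaining viable cells.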", "values": [{"smiles": "CN(C(=O)c1ccccc1Cl)C1CCCc2ccccc21", "note": "(stereo not drawn)", "Potency": "inconclusive: 50.1 µM [inhibitor, full curve, poor fit]"}, {"smiles": "O=C(Nc1ccc(Cl)cc1Cl)c1cn2c(n1)CN(C(=O)OCc1ccccc1)CC2", "Potency": "inconclusive: 89.1 µM [inhibitor, partial curve, poor fit]"}, {"smiles": "C#CCNC(=O)c1nc(-c2ccccc2OC)c2cnccn12", "Potency": "inactive"}, {"smiles": "O=C1Nc2ccccc2CC12CCCN2Cc1ccccc1", "note": "(stereo not drawn)", "Potency": "inconclusive: 100 µM [inhibitor, partial curve]"}, {"smiles": "O=C1CC(c2ccccc2)N(Cc2ccncc2)CCCN(S(=O)(=O)c2cccs2)CCN1", "note": "(stereo not drawn)", "Potency": "inconclusive: 79.4 µM [inhibitor, partial curve, poor fit]"}, {"smiles": "Cc1nc2c(c(-c3ccc(Cl)cc3)n1)CCN(C(=O)c1ccccc1)CC2", "Potency": "inconclusive: 50.1 µM [inhibitor, partial curve, poor fit]"}, {"smiles": "COCCN1CC(c2n[nH]c(C3CCOCC3)n2)CCC1=O", "note": "(stereo not drawn)", "Potency": "inactive"}, {"smiles": "COCC(=O)Nc1ccc(-c2ccc(OC)nn2)cc1", "Potency": "inconclusive: 79.4 µM [inhibitor, partial curve]"}, {"smiles": "O=C(c1csc(Cc2ccccc2)n1)N1Cc2ccccc2C(O)C1", "note": "(stereo not drawn)", "Potency": "inconclusive: 89.1 µM [inhibitor, single point]"}, {"smiles": "Cc1ccc(C(=O)Nc2cnc(-c3ccc(Cl)cc3)nc2)s1", "Potency": "inconclusive: 70.8 µM [inhibitor, single point]"}, {"smiles": "O=C(NC1CCCN(c2cc(-c3ccccc3)[nH]n2)C1)c1ccc(F)cc1Cl", "note": "(stereo not drawn)", "Potency": "inconclusive: 50.1 µM [inhibitor, partial curve, poor fit]"}, {"smiles": "COCCN[C@H]1[C@@H]2OC[C@@H](O2)[C@@H](NCc2ccc(OC(F)(F)F)cc2)[C@@H]1O", "Potency": "inactive"}, {"smiles": "CCOC(=O)[C@@H]1[C@@H](OC)C(=O)N(C)C12CCN(C(=O)C1CCC1)CC2", "Potency": "inactive"}, {"smiles": "CCc1nc2c(c(-c3ccc(O)cc3)n1)CN(Cc1ccc(N(C)C)cc1)CC2", "Potency": "inconclusive: 50.1 µM [inhibitor, partial curve, poor fit]"}, {"smiles": "COc1ccc(CN2C[C@@H](F)[C@@H](OCc3nc4ccc(C)cc4[nH]3)C2)cc1", "Potency": "inconclusive: 63.1 µM [inhibitor, partial curve, poor fit]"}, {"smiles": "O=C(c1ccc(C(F)(F)F)cc1)N1CCC(c2nn(-c3ccccc3)c(=O)[nH]2)CC1", "Potency": "inconclusive: 89.1 µM [inhibitor, single point]"}, {"smiles": "Cc1cn2nc(C(=O)NCc3ccc(F)cc3F)cc2c(N(C)Cc2ccccc2)n1", "Potency": "inconclusive: 50.1 µM [inhibitor, partial curve, poor fit]"}, {"smiles": "COC(=O)N1CCN(C(=O)c2nc3cccnc3n(Cc3ccccc3)c2=O)CC1", "Potency": "inactive"}, {"smiles": "Cc1ccc(CN2CCC3(C2)NC(=O)c2ccccc2CO3)cc1", "note": "(stereo not drawn)", "Potency": "inconclusive: 100 µM [inhibitor, partial curve]"}, {"smiles": "CCOC(=O)N1CCN(C2CCN(c3cc(CC)nc(C)n3)CC2)CC1", "Potency": "inconclusive: 89.1 µM [inhibitor, single point]"}, {"smiles": "CN(C)C(=O)N1CCCC(C(=O)N2CCC(c3nc4ncccc4[nH]3)CC2)C1", "note": "(stereo not drawn)", "Potency": "inconclusive: 25.1 µM [inhibitor, single point]"}, {"smiles": "O=C(c1c(F)cccc1F)N1CCC2(CC1)NC(=O)N(Cc1ccc(F)cc1)C2=O", "Potency": "inconclusive: 70.8 µM [inhibitor, single point]"}, {"smiles": "O=C(NCc1ccc(Cl)cc1)C1CCc2nnc(C3CCN([S+](=O)([O-])c4ccccc4Cl)CC3)n21", "note": "(stereo not drawn)", "Potency": "inconclusive: 100 µM [inhibitor, single point]"}, {"smiles": "Cn1nc(-c2ccncc2)cc1NC(=O)c1cccc(Cl)c1", "Potency": "inconclusive: 50.1 µM [inhibitor, partial curve, poor fit]"}, {"smiles": "COc1ccccc1C(=O)N1CCN(c2nccc(Nc3ccccc3F)n2)CC1", "Potency": "inconclusive: 12.6 µM [inhibitor, partial curve, poor fit]"}, {"smiles": "COc1cccc(CN2C[C@@H]3C(C(=O)NCc4ccccc4)=NO[C@@H]3C2)c1", "Potency": "inconclusive: 100 µM [inhibitor, partial curve]"}, {"smiles": "Cc1ccc(C(=O)CCc2nc(C3CC(=O)N(C4CCCCC4)C3)no2)cc1", "note": "(stereo not drawn)", "Potency": "active: 39.8 µM"}, {"smiles": "COCc1nc(-c2ccc(OC3CCN(S(=O)(=O)c4c(C)noc4C)C3)cc2)no1", "note": "(stereo not drawn)", "Potency": "inconclusive: 44.7 µM [inhibitor, partial curve, poor fit]"}, {"smiles": "Cc1cc(Cl)ccc1NC(=O)c1cnc(-c2ccccc2)nc1-c1ccncc1", "Potency": "active: 44.7 µM"}, {"smiles": "COc1ccc(OCC(=O)N2CCC(Cc3nc(-c4ccc(F)cc4)no3)CC2)cc1", "Potency": "inconclusive: 31.6 µM [inhibitor, partial curve, poor fit]"}, {"smiles": "CSc1ccc(-c2ccc3c(c2)C(=O)N2CC[C@H](NC(=O)C4CCCC4)[C@H]2C(=O)N3)cc1", "Potency": "inconclusive: 89.1 µM [inhibitor, single point]"}, {"smiles": "Cc1cc(C)n(CC(=O)N2CCC(c3nc(CCOc4ccc(F)cc4)no3)C2)n1", "note": "(stereo not drawn)", "Potency": "inactive"}, {"smiles": "c1coc(-c2nnc([C@H]3CCN(Cc4cc5ccccc5o4)C3)o2)c1", "Potency": "inactive"}, {"smiles": "O=C(Cc1ccc(F)cc1)NC1CCN(c2cc(-c3ccccc3)[nH]n2)CC1", "Potency": "inconclusive: 35.5 µM [inhibitor, partial curve, poor fit]"}, {"smiles": "CC(=O)Nc1cccc(-c2ncc3c(n2)OCCN(Cc2ccc(F)cc2F)C3=O)c1", "Potency": "inconclusive: 44.7 µM [inhibitor, full curve]"}, {"smiles": "CC1(C(=O)NCc2ccc(F)cc2)COCc2cnc(Nc3ccccc3)nc21", "note": "(stereo not drawn)", "Potency": "active: 79.4 µM"}, {"smiles": "N#Cc1ccc(CN2CCC3(CC2)COCCN3C(=O)c2ccccc2)cc1", "Potency": "inconclusive: 44.7 µM [inhibitor, partial curve, poor fit]"}, {"smiles": "O=C(Nc1cc(F)ccc1F)N1CCC(CCNC(=O)C2(c3ccccc3)CC2)CC1", "Potency": "inconclusive: 79.4 µM [inhibitor, single point]"}, {"smiles": "COCCN1CCCCCC(O)c2cc(C(=O)NCCN3CCCC3)ccc21", "note": "(stereo not drawn)", "Potency": "inconclusive: 50.1 µM [inhibitor, partial curve, poor fit]"}, {"smiles": "CC(=O)NC1(C)CCCN(c2ccc(OC(F)(F)F)cc2)C1", "note": "(stereo not drawn)", "Potency": "inconclusive: 56.2 µM [inhibitor, partial curve, poor fit]"}, {"smiles": "Cc1nn(-c2ccccc2)c2c1C(C)N(C1CCCN(C(=O)C(C)(C)C)C1)C2=O", "note": "(stereo not drawn)", "Potency": "inactive"}, {"smiles": "CN(C)c1ccc(CNC2(Cc3cc(COc4ccccc4)on3)COC2)cc1", "Potency": "inconclusive: 112 µM [inhibitor, partial curve, poor fit]"}, {"smiles": "Cc1nc(N2CCC(C(=O)NCc3ccc4c(c3)OCO4)CC2)cc(C(F)(F)F)n1", "Potency": "inconclusive: 35.5 µM [inhibitor, full curve, poor fit]"}, {"smiles": "O=C1CC(c2ccccc2)N(C(=O)CNC(=O)c2ccccn2)CCCCCCN1", "note": "(stereo not drawn)", "Potency": "inconclusive: 89.1 µM [inhibitor, single point]"}, {"smiles": "Fc1ccc(CN2CCn3c(nnc3C3CCCNC3)C2)cc1", "note": "(stereo not drawn)", "Potency": "inconclusive: 126 µM [inhibitor, single point]"}, {"smiles": "COc1ccc(OC)c(S(=O)(=O)N2CCCOCCNC(=O)[C@@H]3CCC[C@@H]32)c1", "Potency": "inactive"}, {"smiles": "COc1cccc(Nc2ccc3c(n2)C(C)(C(=O)NC2CCN(C)CC2)CN(C)C3)c1", "note": "(stereo not drawn)", "Potency": "inactive"}, {"smiles": "COc1cc(OC)c(NC(=O)Cn2c(N(C)Cc3ccccc3)nc(C)cc2=O)cc1Cl", "Potency": "active: 22.4 µM"}, {"smiles": "COc1cc(OC)cc(-c2onc(C)c2C(=O)NCc2cccc(Cl)c2)c1", "Potency": "inconclusive: 89.1 µM [inhibitor, single point]"}, {"smiles": "Cn1c(CN2CCC3(CCNCC3)C2)nc2ccccc21", "Potency": "inconclusive: 89.1 µM [inhibitor, single point]"}, {"smiles": "Cn1ccc(Nc2nccc3c(=O)cc(-c4ccccn4)oc23)n1", "Potency": "inactive"}, {"smiles": "O=C(c1ccsc1)N1CCC2(CC1)CC(N(C(=O)c1ccccc1)C1CC1)CCO2", "note": "(stereo not drawn)", "Potency": "inconclusive: 31.6 µM [inhibitor, partial curve, poor fit]"}, {"smiles": "COc1cccc(-c2ccc(C(=O)NCCNC(=O)c3ccccc3OC)cc2)c1", "Potency": "inconclusive: 20 µM [inhibitor, partial curve, poor fit]"}, {"smiles": "Cc1cc(=O)n(CC(=O)Nc2ccc3c(c2)OCO3)c(N2CCc3ccccc3C2)n1", "Potency": "inconclusive: 70.8 µM [inhibitor, partial curve, poor fit]"}, {"smiles": "Cn1ncc2c(C(=O)NCCCc3ccccc3)cc(-c3ccc(Cl)cc3Cl)nc21", "Potency": "inconclusive: 25.1 µM [inhibitor, full curve]"}, {"smiles": "O=C(Nc1cccs1)N1CCNc2cnc(Nc3cccc(C(F)(F)F)c3)nc2C1", "Potency": "active: 79.4 µM"}, {"smiles": "COc1ccc(C(=O)NC2CCN(c3cc(-c4ccc(Cl)cc4)[nH]n3)C2)cc1OC", "note": "(stereo not drawn)", "Potency": "inconclusive: 50.1 µM [inhibitor, partial curve, poor fit]"}, {"smiles": "COc1cccc(Nc2cnc3ccc(-c4ccccc4OC)nn23)c1", "Potency": "active: 79.4 µM"}, {"smiles": "c1ccc(-c2nc(NCc3cc4n(n3)CCCNC4)c3ccccc3n2)cc1", "Potency": "inconclusive: 50.1 µM [inhibitor, partial curve, poor fit]"}, {"smiles": "O=C(CC[C@H]1NC(=O)c2ccccc2NC1=O)Nc1cccc(-c2ncn[nH]2)c1", "Potency": "inactive"}, {"smiles": "CC(=O)N[C@H]1CCN(CCC(=O)Nc2ccc(F)c(Cl)c2)C1", "Potency": "inactive"}, {"smiles": "COc1ccc(-c2cc(N3CCN(C(=O)c4cccc(F)c4)CC3)n[nH]2)cc1", "Potency": "inconclusive: 50.1 µM [inhibitor, partial curve, poor fit]"}, {"smiles": "Cc1ccc(-c2ccc3nnc(CNC(=O)c4ccccc4C)n3n2)cc1C", "Potency": "inactive"}]}]}
